Data as given in PubChem BioAssay AID1347165 (National Center for Advancing Translational Sciences (NCATS), 2019).
About 5,700 (2.6%) of roughly 220,000 compounds were called active. Inconclusive results, whose numbers are uncertain, are shown with a selection of clear calls. Calls follow the shape of the dose curve; as a rule, active = well fitted inhibition curve with a large enough effect; inconclusive = small, poorly fitted or top-dose-only effect; inactive = no such curve, though single readings can be large or run the other way. Potencies beside an inconclusive call are fits to weak or partial responses and may not hold up.

Biological target: Lysine-specific demethylase 5B (Homo sapiens) (UniProt Q9UGL1)
Test: Primary screen for KDM5B Histone Demethylases FDH-coupled qHTS; also: nearly all actives have a fitted effect of over 70% in size
Details: FDH-coupled NADH fluorescence (FDH is formaldehyde dehydrogenase); series mostly up to 57.7 µM
In short: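 KDM5BΔAP (200 nM final) in 50 mM HEPES pH 7.5, 0.01% Tween-20 was preincubated 10 min at RT with compound over a concentration range. Substrate mix (H3K4me3 12.5 µM, α-KG 25 µM, Fe²⁺, ascorbate, NAD⁺, FDH) was added, and NADH fluorescence change over 30 min gave dose-response curves.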
Potency is read from the fitted curve at half-maximal effect; tags tell the direction and shape of the fitted curve.

Sequence of UniProt Q9UGL1 (Q9UGL1 whole entry, looked up): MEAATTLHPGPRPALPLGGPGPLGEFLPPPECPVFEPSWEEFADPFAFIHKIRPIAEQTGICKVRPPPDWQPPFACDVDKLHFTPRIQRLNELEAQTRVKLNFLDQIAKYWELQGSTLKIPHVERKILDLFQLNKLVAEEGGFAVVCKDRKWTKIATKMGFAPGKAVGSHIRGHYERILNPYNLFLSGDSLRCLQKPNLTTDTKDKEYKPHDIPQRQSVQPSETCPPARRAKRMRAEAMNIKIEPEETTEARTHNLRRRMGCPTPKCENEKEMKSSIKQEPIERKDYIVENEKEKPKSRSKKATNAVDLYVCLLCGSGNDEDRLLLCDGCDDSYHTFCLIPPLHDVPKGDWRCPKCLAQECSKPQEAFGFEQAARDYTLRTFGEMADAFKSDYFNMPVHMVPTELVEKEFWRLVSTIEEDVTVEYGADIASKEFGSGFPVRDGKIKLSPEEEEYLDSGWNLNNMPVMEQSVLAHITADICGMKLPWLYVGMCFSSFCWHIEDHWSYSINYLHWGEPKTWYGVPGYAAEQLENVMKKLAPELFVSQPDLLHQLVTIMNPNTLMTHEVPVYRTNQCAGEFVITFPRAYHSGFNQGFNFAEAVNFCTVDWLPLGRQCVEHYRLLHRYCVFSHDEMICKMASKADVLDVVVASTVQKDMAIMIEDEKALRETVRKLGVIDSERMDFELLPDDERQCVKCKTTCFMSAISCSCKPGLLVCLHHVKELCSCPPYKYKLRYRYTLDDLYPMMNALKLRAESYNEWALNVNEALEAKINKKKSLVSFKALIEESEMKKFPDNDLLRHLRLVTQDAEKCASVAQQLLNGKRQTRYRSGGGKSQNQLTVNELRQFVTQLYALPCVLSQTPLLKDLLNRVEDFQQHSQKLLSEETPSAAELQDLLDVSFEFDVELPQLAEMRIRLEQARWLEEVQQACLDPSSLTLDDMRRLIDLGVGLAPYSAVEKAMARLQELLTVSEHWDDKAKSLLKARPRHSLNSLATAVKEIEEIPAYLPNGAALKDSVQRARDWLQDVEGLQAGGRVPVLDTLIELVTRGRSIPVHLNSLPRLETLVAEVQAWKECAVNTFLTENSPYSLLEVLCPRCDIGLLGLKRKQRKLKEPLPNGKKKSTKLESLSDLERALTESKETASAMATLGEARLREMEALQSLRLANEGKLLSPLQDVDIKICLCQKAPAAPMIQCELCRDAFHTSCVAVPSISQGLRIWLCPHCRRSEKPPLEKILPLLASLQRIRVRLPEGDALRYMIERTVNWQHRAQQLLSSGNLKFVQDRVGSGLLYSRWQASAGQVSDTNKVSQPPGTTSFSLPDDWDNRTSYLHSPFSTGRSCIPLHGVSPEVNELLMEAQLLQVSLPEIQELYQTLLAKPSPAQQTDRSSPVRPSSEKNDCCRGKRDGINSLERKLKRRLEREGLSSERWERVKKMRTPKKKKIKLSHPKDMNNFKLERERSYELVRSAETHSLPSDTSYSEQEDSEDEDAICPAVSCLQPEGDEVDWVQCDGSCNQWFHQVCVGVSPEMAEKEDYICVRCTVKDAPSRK

SMILES | Potency
CC(OC(=O)Cn1cnc2c1c(=O)n(C)c(=O)n2C)C(=O)Nc1ccc(F)cc1 (stereo not given) | inactive
O=C(CC(=O)c1ccc(Cl)cc1)c1ccc(Cl)cc1 | inactive
COCCNC(=O)C1CC(=O)N(c2n[nH]c3ccccc23)C1 (stereo not given) | inactive
Nc1nc(Nc2ccc(Cl)cc2Cl)nc(-c2cc3ccccc3o2)n1 | inactive
CC(=O)NCCCC(=O)N1CCN(C2CCNCC2)C(=O)C1 | inconclusive: 56.2 µM [inhibitor, partial curve, poor fit]
CS(=O)(=O)NCCc1ccc(C(=O)COc2ccc(Br)cc2Cl)s1 | inactive
O=C(c1ccc(-c2ccccc2)cc1)C(O)c1ccc(-c2ccccc2)cc1 (stereo not given) | inactive
Cc1ccc(Nc2c(-c3ccc(N4CCOCC4)cc3)nc3ccc(Cl)cn23)cc1 | inconclusive: 1.26 µM [inhibitor, full curve, poor fit]
Cc1cc(C)c(NC(=O)Cn2nnc(-c3nc(-c4ccncc4)no3)c2N)c(C)c1 | inconclusive: 35.5 µM [inhibitor, single point]
O=S(=O)(c1ccc(-c2csc(Nc3ccc(F)cc3)n2)cc1)N1CCOCC1 | inconclusive: 20 µM [inhibitor, partial curve, poor fit]
COc1cccc(CN2CCCC3(COc4ccccc4C(=O)N3)C2)c1 (stereo not given) | active: 35.5 µM
O=C(NC1CCCc2ccccc21)c1ccc2c(Cl)c3c(nc2c1)CCCC3 (stereo not given) | inactive
CN(C)[C@@H]1CN(Cc2cccc(F)c2F)CC[C@@H]1CNC(=O)C1CC1 | inactive
Cc1ccc(Cl)cc1N1CCN(C(=O)c2cnn(-c3ccc(Cl)cc3)c2C2CCNCC2)CC1 | inconclusive: 28.2 µM [inhibitor, single point]
Cc1ccc(N2CCN(c3nc4ccccc4n4nnnc34)CC2)c(C)c1 | inactive
O=S(=O)(c1ccccc1)N1CCN(Cc2cccc3cccnc23)CC1 | inactive
O=C(C1CC1)N1CC=C(c2c[nH]c3ccccc23)CC1 | inconclusive: 28.2 µM [inhibitor, partial curve, poor fit]
O=C(CSc1nc2ccccc2nc1N1CCCC1)N1CCN(c2ccc(Cl)cc2)CC1 | inconclusive: 4.47 µM [inhibitor, full curve, poor fit]
O=C1NC(=O)C(c2ccc(-c3ccc4nc[nH]c(=O)c4c3)cc2)N1 (stereo not given) | inconclusive: 3.98 µM [inhibitor, full curve, poor fit]
Cc1cc(C)cc(NC(=O)CSCc2cc(=O)n3ccsc3n2)c1 | inactive
COc1ccc(C(=O)N2CCC3(CC2)NC(=O)N(Cc2ccccc2)C3=O)c(C)c1 | inactive
C#CCNC(=O)c1ccc(-n2ccc(C(F)(F)F)n2)cc1 | inactive
O=C(COc1ccc(Br)cc1CNCCc1ccccc1)NCc1ccccc1 | inconclusive: 2.82 µM [inhibitor, full curve, poor fit]

SMILES | Potency
N#CCn1nc2n(c1=O)CCN(C(=O)c1cccc3[nH]ccc13)CC2 | inconclusive: 31.6 µM [inhibitor, partial curve, poor fit]
Cc1ccc(CCNC(=O)c2ccc(Cn3c(=O)c4cccn4c4cccnc43)cc2)cc1 | inconclusive: 17.8 µM [inhibitor, partial curve, poor fit]
CS(=O)(=O)N1CCN(C(=O)Cn2nc3c(cc2=O)CCCCC3)CC1 | inactive
O=[S+]([O-])(c1ccccc1)c1nnn2c1nc(N1CCC(F)CC1)c1ccccc12 | inconclusive: 70.8 µM [inhibitor, partial curve, poor fit]
CCCS(=O)(=O)N1CCC(Nc2nccnc2OCC)CC1 | active: 15.8 µM
O=C(Nc1ccc2c(c1)OCCO2)NC1(C(F)(F)F)Oc2ccccc2O1 | inconclusive: 20 µM [inhibitor, partial curve, poor fit]
COC(=O)c1ccc(OCc2ccc(C#N)cc2)c(OC)c1 | inactive
CCOc1ccccc1NC(=O)C(C)n1nnc2sc3c(c2c1=O)CCCC3 (stereo not given) | inactive
COc1ccc(NC(=O)CSc2nc3ccccc3n2CC(=O)Nc2cccc(C)c2C)cc1 | inconclusive: 15.8 µM [inhibitor, partial curve, poor fit]
CCC(CO)NS(=O)(=O)c1cc(-c2nnc3c4ccccc4c(C)nn23)ccc1OC (stereo not given) | inconclusive: 22.4 µM [inhibitor, single point]
COc1cccc2[nH]c(C(=O)NCCCN(C)C)cc12 | inconclusive: 25.1 µM [inhibitor, partial curve, poor fit]
CCCCCC(=O)Nc1nc2c(s1)C[C@@H]1[C@](C)(CO)[C@H](O)CC[C@@]1(C)[C@@H]2CC(=O)Nc1ccccc1 | inactive
CC(O)c1ccc(-c2ccc(CNCc3cccs3)o2)cc1 (stereo not given) | inconclusive: 31.6 µM [inhibitor, single point]
COc1cccc(NC(=O)NC[C@H]2O[C@@H](CC(=O)N3CCN(c4ccc(F)cc4)CC3)[C@H](O)[C@@H]2O)c1 | inconclusive: 25.1 µM [inhibitor, single point]
Cc1ccc(NC(=O)C2CCN(c3ncccn3)CC2)cc1F | inconclusive: 8.91 µM [inhibitor, partial curve, poor fit]
O=C(Nc1cccc(S(=O)(=O)Nc2ccc(Cl)cc2)c1)c1ccccn1 | inconclusive: 2.51 µM [inhibitor, full curve, poor fit]
CCOc1ccc(NC(=O)CSCc2cc(=O)n3ccccc3n2)cc1 | inactive
COc1ccnc(N2CCC(CO)(Cc3ccccc3C(F)(F)F)CC2)n1 | inconclusive: 17.8 µM [inhibitor, partial curve, poor fit]
CC(=O)N1CCc2cc(CNS(=O)(=O)c3ccc(C(C)(C)C)cc3)ccc21 | inconclusive: 8.91 µM [inhibitor, partial curve, poor fit]
CC(Sc1cccc[n+]1[O-])C(=O)Nc1cccc2ccccc12 (stereo not given) | inactive
COCCCNC(=O)c1ccc2c(c1)n(Cc1cccc(F)c1)c(=O)c1ccnn12 | active: 28.2 µM
Cc1oc2c(c1C(=O)NC1CCCN(c3ncccn3)C1)C(=O)CCC2 (stereo not given) | inconclusive: 15.8 µM [inhibitor, partial curve, poor fit]
